# Test results from the supplement of paper PMC8728848.
# The other results are listed elsewhere or left out.
# B1: PX9961H-bth-557-24-557 (Bacteroides thetaiotaomicron) (protein)
# chain: EETRTEVEKKNYMNNAEEAKDVLLGVYRTNTLDAMYGYYLSILFNLGTDISQVEGSGNENFRIIPTNSFPTTQSEVQQTWAALYTGIYRANDFLERISNKIGSYTTTDKKLATLYIAEARALRGMFYFELVRRFGNVVLMTSTQMSNQNPATYVQSAPEKVYEYIEDDLLYACDILPYATDDQYRESNDYRFSKGAALGLLTKVYATWAGYPVKDESKWEAAAKTARILVESGKHGLLKDYEQLWKNTCNGTWDPTESLIEISFYSPTVSGNSDPVGRIGKWNGVKTTAIAGVRGSCAANVKVVHTFVLDWREDVSDIRRDLSIANYQYTDTKKSLWVAGASDTDESAAEKDADPTKAQKNKQNYTPAKWDIQKYVTTNSFINNDKSNVNWYFLRYADVLLLYAEALNEWKHGPDAEAYNAINAVRRRGYGNPSNTSACDLPQGLDETSFREAVRKERSYELSFEGHRRQDLIRWGIYYKTVQATAKELGYWWEGTGSPNYSVATYTEEGKHELFPIPQRDMDLCIQFNQNPKW
# Assays:
# Experiment in all cases: glycan array binding signal (z-score within array); higher = stronger binding
# Settings in all cases: glycan notation: IUPAC condensed, linker removed
# [1] = target: Gal(b1-4)GlcNAc(b1-2)[Gal(b1-4)GlcNAc(b1-6)]Man(a1-6)[GlcNAc(b1-4)][Gal(b1-4)GlcNAc(b1-2)Man(a1-3)]Man(b1-4)GlcNAc(b1-4)GlcNAc
# In short: (§1)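 Columns mapping to the same glycan were averaged after glycan names were converted to IUPAC-condensed notation. The data come from 3228 arrays in the Consortium for Functional Glycomics database, limited to those with an available protein sequence. Binding is reported as a within-array Z-score averaged across arrays of one protein sequence and across linkers.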
# [2] = target: Gal(b1-4)GlcNAc(b1-2)[Gal(b1-4)GlcNAc(b1-6)]Man(a1-6)[GlcNAc(b1-4)][Gal(b1-4)GlcNAc(b1-2)[Gal(b1-4)GlcNAc(b1-4)]Man(a1-3)]Man(b1-4)GlcNAc(b1-4)[Fuc(a1-6)]GlcNAc
# In short: as §1
# [3] = target: Gal(b1-4)GlcNAc(b1-3)Gal(b1-3)GalNAc
# In short: as §1
# [4] = target: Gal(b1-4)GlcNAc(b1-3)Gal(b1-3)GlcNAc
# In short: as §1
# [5] = target: Gal(b1-4)GlcNAc(b1-3)Gal(b1-4)Glc
# In short: as §1
# [6] = target: Gal(b1-4)GlcNAc(b1-3)Gal(b1-4)GlcNAc
# In short: as §1
# [7] = target: Gal(b1-4)GlcNAc(b1-3)Gal(b1-4)GlcNAc(b1-2)Man(a1-3)[Gal(b1-4)GlcNAc(b1-3)Gal(b1-4)GlcNAc(b1-2)Man(a1-6)]Man(b1-4)GlcNAc(b1-4)GlcNAc
# In short: as §1
# [8] = target: Gal(b1-4)GlcNAc(b1-3)Gal(b1-4)GlcNAc(b1-2)Man(a1-3)[Gal(b1-4)GlcNAc(b1-3)Gal(b1-4)GlcNAc(b1-2)Man(a1-6)]Man(b1-4)GlcNAc(b1-4)[Fuc(a1-6)]GlcNAc
# In short: as §1
# [9] = target: Gal(b1-4)GlcNAc(b1-3)Gal(b1-4)GlcNAc(b1-2)[Gal(b1-4)GlcNAc(b1-3)Gal(b1-4)GlcNAc(b1-6)]Man(a1-6)[Gal(b1-4)GlcNAc(b1-3)Gal(b1-4)GlcNAc(b1-2)Man(a1-3)]Man(b1-4)GlcNAc(b1-4)GlcNAc
# In short: as §1
# [10] = target: Gal(b1-4)GlcNAc(b1-3)Gal(b1-4)GlcNAc(b1-2)[Gal(b1-4)GlcNAc(b1-3)Gal(b1-4)GlcNAc(b1-6)]Man(a1-6)[Gal(b1-4)GlcNAc(b1-3)Gal(b1-4)GlcNAc(b1-2)Man(a1-3)]Man(b1-4)GlcNAc(b1-4)[Fuc(a1-6)]GlcNAc
# In short: as §1
# [11] = target: Gal(b1-4)GlcNAc(b1-3)Gal(b1-4)GlcNAc(b1-3)Gal(b1-4)GlcNAc
# In short: as §1
# [12] = target: Gal(b1-4)GlcNAc(b1-3)Gal(b1-4)GlcNAc(b1-3)Gal(b1-4)GlcNAc(b1-2)Man(a1-3)[Gal(b1-4)GlcNAc(b1-3)Gal(b1-4)GlcNAc(b1-3)Gal(b1-4)GlcNAc(b1-2)Man(a1-6)]Man(b1-4)GlcNAc(b1-4)GlcNAc
# In short: as §1
# [13] = target: Gal(b1-4)GlcNAc(b1-3)Gal(b1-4)GlcNAc(b1-3)Gal(b1-4)GlcNAc(b1-2)Man(a1-3)[Gal(b1-4)GlcNAc(b1-3)Gal(b1-4)GlcNAc(b1-3)Gal(b1-4)GlcNAc(b1-2)Man(a1-6)]Man(b1-4)GlcNAc(b1-4)[Fuc(a1-6)]GlcNAc
# In short: as §1
# [14] = target: Gal(b1-4)GlcNAc(b1-3)Gal(b1-4)GlcNAc(b1-3)Gal(b1-4)GlcNAc(b1-2)[Gal(b1-4)GlcNAc(b1-3)Gal(b1-4)GlcNAc(b1-3)Gal(b1-4)GlcNAc(b1-6)]Man(a1-6)[Gal(b1-4)GlcNAc(b1-3)Gal(b1-4)GlcNAc(b1-3)Gal(b1-4)GlcNAc(b1-2)Man(a1-3)]Man(b1-4)GlcNAc(b1-4)[Fuc(a1-6)]GlcNAc
# In short: as §1
# [15] = target: Gal(b1-4)GlcNAc(b1-3)Gal(b1-4)GlcNAc(b1-3)Gal(b1-4)GlcNAc(b1-3)Gal(b1-4)GlcNAc(b1-2)Man(a1-3)[Gal(b1-4)GlcNAc(b1-3)Gal(b1-4)GlcNAc(b1-3)Gal(b1-4)GlcNAc(b1-3)Gal(b1-4)GlcNAc(b1-2)Man(a1-6)]Man(b1-4)GlcNAc(b1-4)GlcNAc
# In short: as §1
# [16] = target: Gal(b1-4)GlcNAc(b1-3)Gal(b1-4)GlcNAc(b1-3)Gal(b1-4)GlcNAc(b1-3)Gal(b1-4)GlcNAc(b1-2)Man(a1-3)[Gal(b1-4)GlcNAc(b1-3)Gal(b1-4)GlcNAc(b1-3)Gal(b1-4)GlcNAc(b1-3)Gal(b1-4)GlcNAc(b1-2)Man(a1-6)]Man(b1-4)GlcNAc(b1-4)[Fuc(a1-6)]GlcNAc
# In short: as §1
# [17] = target: Gal(b1-4)GlcNAc(b1-3)Gal(b1-4)GlcNAc(b1-3)Gal(b1-4)GlcNAc(b1-3)Gal(b1-4)GlcNAc(b1-2)[Gal(b1-4)GlcNAc(b1-3)Gal(b1-4)GlcNAc(b1-3)Gal(b1-4)GlcNAc(b1-3)Gal(b1-4)GlcNAc(b1-6)]Man(a1-6)[Gal(b1-4)GlcNAc(b1-3)Gal(b1-4)GlcNAc(b1-3)Gal(b1-4)GlcNAc(b1-3)Gal(b1-4)GlcNAc(b1-2)Man(a1-3)]Man(b1-4)GlcNAc(b1-4)[Fuc(a1-6)]GlcNAc
# In short: as §1
# [18] = target: Gal(b1-4)GlcNAc(b1-3)Gal(b1-4)GlcNAc(b1-3)Gal(b1-4)GlcNAc(b1-3)Gal(b1-4)GlcNAc(b1-3)Gal(b1-4)GlcNAc(b1-2)Man(a1-3)[Gal(b1-4)GlcNAc(b1-3)Gal(b1-4)GlcNAc(b1-3)Gal(b1-4)GlcNAc(b1-3)Gal(b1-4)GlcNAc(b1-3)Gal(b1-4)GlcNAc(b1-2)Man(a1-6)]Man(b1-4)GlcNAc(b1-4)GlcNAc
# In short: as §1
# [19] = target: Gal(b1-4)GlcNAc(b1-3)Gal(b1-4)GlcNAc(b1-3)Gal(b1-4)GlcNAc(b1-3)Gal(b1-4)GlcNAc(b1-3)Gal(b1-4)GlcNAc(b1-2)Man(a1-3)[Gal(b1-4)GlcNAc(b1-3)Gal(b1-4)GlcNAc(b1-3)Gal(b1-4)GlcNAc(b1-3)Gal(b1-4)GlcNAc(b1-3)Gal(b1-4)GlcNAc(b1-2)Man(a1-6)]Man(b1-4)GlcNAc(b1-4)[Fuc(a1-6)]GlcNAc
# In short: as §1
# [20] = target: Gal(b1-4)GlcNAc(b1-3)Gal(b1-4)GlcNAc(b1-3)Gal(b1-4)GlcNAc(b1-3)Gal(b1-4)GlcNAc(b1-3)Gal(b1-4)GlcNAc(b1-2)[Gal(b1-4)GlcNAc(b1-3)Gal(b1-4)GlcNAc(b1-3)Gal(b1-4)GlcNAc(b1-3)Gal(b1-4)GlcNAc(b1-3)Gal(b1-4)GlcNAc(b1-6)]Man(a1-6)[Gal(b1-4)GlcNAc(b1-3)Gal(b1-4)GlcNAc(b1-3)Gal(b1-4)GlcNAc(b1-3)Gal(b1-4)GlcNAc(b1-3)Gal(b1-4)GlcNAc(b1-2)Man(a1-3)]Man(b1-4)GlcNAc(b1-4)[Fuc(a1-6)]GlcNAc
# In short: as §1
# [21] = target: Gal(b1-4)GlcNAc(b1-3)Gal(b1-4)GlcNAc(b1-3)Gal(b1-4)GlcNAc(b1-3)Gal(b1-4)GlcNAc(b1-3)Gal(b1-4)GlcNAc(b1-3)Gal(b1-4)GlcNAc(b1-2)Man(a1-3)[Gal(b1-4)GlcNAc(b1-3)Gal(b1-4)GlcNAc(b1-3)Gal(b1-4)GlcNAc(b1-3)Gal(b1-4)GlcNAc(b1-3)Gal(b1-4)GlcNAc(b1-3)Gal(b1-4)GlcNAc(b1-2)Man(a1-6)]Man(b1-4)GlcNAc(b1-4)GlcNAc
# In short: as §1
# [22] = target: Gal(b1-4)GlcNAc(b1-3)Gal(b1-4)GlcNAc(b1-3)GalNAc
# In short: as §1
# [23] = target: Gal(b1-4)GlcNAc(b1-3)Gal(b1-4)GlcNAc(b1-3)[Gal(b1-4)GlcNAc(b1-3)Gal(b1-4)GlcNAc(b1-6)]GalNAc
# In short: as §1
binder,measurement,setting,value
B1,glycan array binding signal (z-score),[1],-0.13
same,glycan array binding signal (z-score),[2],-0.135
same,glycan array binding signal (z-score),[3],0.039
same,glycan array binding signal (z-score),[4],-0.058
same,glycan array binding signal (z-score),[5],0.203
same,glycan array binding signal (z-score),[6],-0.319
same,glycan array binding signal (z-score),[7],3.35
same,glycan array binding signal (z-score),[8],0.583
same,glycan array binding signal (z-score),[9],0.778
same,glycan array binding signal (z-score),[10],3.59
same,glycan array binding signal (z-score),[11],0.096
same,glycan array binding signal (z-score),[12],2.56
same,glycan array binding signal (z-score),[13],-0.234
same,glycan array binding signal (z-score),[14],3.08
same,glycan array binding signal (z-score),[15],2.76
same,glycan array binding signal (z-score),[16],1.18
same,glycan array binding signal (z-score),[17],0.661
same,glycan array binding signal (z-score),[18],5.22
same,glycan array binding signal (z-score),[19],0.542
same,glycan array binding signal (z-score),[20],4.46
same,glycan array binding signal (z-score),[21],2.62
same,glycan array binding signal (z-score),[22],2.16
same,glycan array binding signal (z-score),[23],-0.116
